Experimental data from publication PMC6212790.
The list shows a part of the results. At the low end of the ranking, values are background and their order means little.

Each sequence was assayed against T1, GST-Rok (full length) (UniProt O34857) (assay: protein binding microarray). Conditions: Rok is a gene silencer of Bacillus subtilis; high values mean tight binding; most listed sequences are background and not binding sites; double strand, one strand shown.
T1 sequence: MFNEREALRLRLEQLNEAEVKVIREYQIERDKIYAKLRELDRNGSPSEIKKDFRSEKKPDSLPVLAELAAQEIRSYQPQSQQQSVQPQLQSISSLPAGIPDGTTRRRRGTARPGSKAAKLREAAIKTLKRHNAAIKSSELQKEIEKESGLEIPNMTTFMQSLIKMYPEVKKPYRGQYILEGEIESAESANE
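Further: rank score from −0.5 (least bound) to 0.5 (best bound).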

Sequence | binding signal [E-score]
CATTACTC | 0.136
CAACGTAC | 0.0498
AAAACCTG | 0.0684
CATACGAG | 0.069
AGCGTTGC | -0.159
ACTTTGGC | -0.0107
AAAATCGC | 0.0967
AGCTAGAT | 0.215
GGTCCTCA | -0.174
GGCTGAAC | -0.117
TCATGAAA | -0.0419
CGTAGACG | -0.174
ACTCTGAC | -0.144
TACCATAA | 0.336
ATGATACC | 0.168
AGGGCGGG | -0.388
GAGTTTAC | 0.189
ATATTATC | 0.319
CAGTGATG | -0.204
GCAGCACC | -0.0543
CGACTCAG | -0.108
ACTGGACT | -0.0397
TACCCTAA | -0.136
CCGCGACC | -0.307
AAGGCGCG | -0.258

Sequence | binding signal [E-score]
CACACTGG | -0.155
ACAGGTAT | 0.164
GGAATCAA | 0.103
AAATGCGG | 0.0159
ACATGTGC | -0.158
AGACGACT | -0.0474
ATGTTGCG | 0.176
ATTTACAA | 0.368
CTCGACTA | -0.132
AACCCGGC | -0.192
GGGGTCCA | -0.48
CATCATCA | -0.0806
AAATCCGT | -0.0278
ACGTCCCT | -0.262
ACTTGAGA | -0.000684
ACGGTTCC | -0.189
GGGCCCTA | -0.319
ACCCTACA | 0.0991
AGAGTAAT | 0.197
TACTGACA | 0.0395
TCATCGGA | -0.204
AGACCCGG | -0.0467
ACCATGCA | 0.136
AGCTCCGG | -0.131
AATGAGAA | 0.0614

Sequence | binding signal [E-score]
ATCACAAG | -0.0596
ATGTTCCG | -0.0624
GCATTATA | 0.193
GACCCCTA | -0.355
ATATGCGG | 0.0379
CATATATA | 0.38
CCCATTAC | -0.0646
ATTTTCTC | 0.264
ACCCACCC | -0.00328
CAATATGA | 0.0587
TCTCCAGA | 0.103
ACTTTTAA | 0.158
GGAGGGGA | -0.419
ATTTCCAC | -0.0661
CCCCCAGA | -0.441
CTCAGAAC | -0.0411
CGCTAGTA | 0.31
CCAGTGGG | -0.319
CCTCTCAG | -0.299
ACACGAGA | -0.0131
ATGCGCTG | 0.186
CCCCGGTC | -0.158
ACTAGCCC | -0.103
AACCTCAT | -0.155
TCTCTGAA | -0.0711

Sequence | binding signal [E-score]
CAAATTAA | 0.107
ACTCCTCC | -0.27
CGTAGCTA | 0.365
GTCCACAA | -0.186
GTAATTCA | 0.212
CATACGGC | -0.16
GGACTAAA | 0.0714
TAAAGAGA | 0.0606
ACCGGACT | -0.00817
GTGACGCA | -0.175
CGACGCAC | -0.122
AGATGTCC | -0.108
CGGGTCAA | -0.266
CTTATAAG | 0.217
ATGGCTAG | -0.0116
CGAGTGAC | -0.124
CAGCCCCA | -0.291
GCTTCGCC | -0.163
ATTTTGAC | 0.24
TACAAGCA | 0.121
CACTACCG | 0.0654
ATAGCACA | 0.0233
CCACTAGC | -0.055
GACTCCTC | -0.334
AGAACCCT | -0.292

Sequence | binding signal [E-score]
ATTGCGCG | 0.00325
GGGGCCCC | -0.464
ATTCAAGA | -0.114
ACTGGGGC | -0.39
ATAGGACA | 0.117
GCACTGGA | -0.181
CACACTCA | -0.00789
CACCCTGG | -0.288
AGTAGGGC | 0.0918
AGAGTGCC | -0.321
GTCTAGGA | -0.239
ACACATGA | 0.211
AGTCTGGC | -0.137
ATCTATTC | 0.128
CTCCGAGC | -0.206
ACCACGGC | -0.261
CATCAATA | -0.076
AGGCGCAC | -0.138
CTCTTGCC | -0.174
ATACCGCC | 0.043
GACCCCAC | -0.442
GTGTCGCA | -0.0786
AGATTAGC | 0.147
GCATCGCC | -0.439
AGTCCGTA | 0.0325

Sequence | binding signal [E-score]
AGATAAAA | 0.293
CGCAGTCC | -0.241
GCGACGAC | -0.248
CCGCCCGA | -0.299
AGTGGTAC | 0.191
GGCGCACA | -0.198
ACACGCAC | -0.0836
CAACGAGA | 0.00134
CTAATGTA | 0.184
ATCTATGG | 0.188
AAAGTGAT | 0.0523
ACGTCTGC | -0.0805
GACTTCGA | -0.0722
GTAGTCAC | 0.0191
CCCCATGC | -0.365
CAGCCTTC | -0.357
GTATGCAC | 0.0133
AGACACTG | -0.172
AGGGTAGA | 0.16
CCCACTTA | -0.0198
AGATCCAT | 0.0551
CGGGTACG | 0.0136
CCGCGCAC | -0.267
ATAGATGA | 0.142
GGTTAAAA | 0.086

Sequence | binding signal [E-score]
GAGCTCCC | -0.192
GGCAAAGA | -0.245
AGTTCGAG | 0.124
AGCCCTCC | -0.379
AGGTGTAT | 0.201
CGAAGGTA | 0.00689
CCCGGACG | -0.339
GCGGATAA | -0.0484
CTGCGCGC | -0.0594
CCTTAAAC | -0.236
ATAGCCAC | -0.0983
AACTTGGG | -0.122
CTGTCTGC | 0.0478
GTGGTATA | 0.316
TAATGCTA | 0.221
GAGTCTGC | -0.296
CAGTCGTC | -0.0617
TTCGAAAA | -0.169
GAGGACGA | -0.27
CATAGTGC | -0.127
CCCATAGC | -0.117
GTACGAGA | -0.0407
